Results from EPA's CvTdb concentration-time database.
The source gives many values for each of these; only a part stands here.

System: Rat
Assay: concentration in plasma after dosing
Conditions: iv, Female

Row | Structure (SMILES) | concentration in plasma (1 h, dosed: dichloroacetic acid, 60 mg/kg, Harlan Sprague-Dawley) | concentration in plasma (0.25 h, dosed: Tamoxifen citrate, 0.3 mg/kg, Sprague-Dawley) | concentration in plasma (0.5 h, dosed: Tamoxifen citrate, 0.3 mg/kg, Sprague-Dawley) | concentration in plasma (1 h, dosed: Tamoxifen citrate, 0.3 mg/kg, Sprague-Dawley) | concentration in plasma (2 h, dosed: Tamoxifen citrate, 0.3 mg/kg, Sprague-Dawley) | concentration in plasma (4 h, dosed: Tamoxifen citrate, 0.3 mg/kg, Sprague-Dawley)
1 | O=C(O)C(Cl)Cl [dichloroacetic acid] | 10900 ng/mL |  |  |  |  | 
2 | CC/C(=C(\c1ccccc1)c1ccc(OCCN(C)C)cc1)c1ccccc1 [Tamoxifen, free base] |  | 13.7 ng/mL | 20.1 ng/mL | 8.88 ng/mL | 6.89 ng/mL | 4.04 ng/mL
